Test results from PubChem BioAssay AID504466 (National Center for Advancing Translational Sciences (NCATS), 2011).
Where “and” joins values, the source holds several entries; their conditions need not be identical. Equal values may be shown once. In all, about 330,000 compounds went through this assay and about 4,200 (1.3%) were called active. Inconclusive means that the source gave no clear call. Such entries were picked first, then a sample of the others. Calls come from the whole dose curve; as a rule, active = well fitted activation curve with a large enough effect; inconclusive = small, poorly fitted or top-dose-only effect; inactive = no such curve, though single readings can be large or run the other way. Where the call is inconclusive, the potency comes from a doubtful curve fit.

test: qHTS screen for small molecules that induce genotoxicity in human embryonic kidney (HEK293T) cells expressing luciferase-tagged ELG1; details: HEK293T ELG1-luciferase reporter, luminescence, 16 h; series mostly up to 46 µM; note: nearly all actives have a fitted effect of over 60% in size
Method in brief: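 Quantitative HTS format in 1536-well plates. HEK293T ELG1-luciferase reporter cells receive test compound and are incubated 16 hr at 37 °C, 5% CO2; ONE-Glo added, 30 min room temperature, then luminescence read.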
Potency is the fitted concentration of half-maximal effect; tags give direction and shape of the fitted curve.

Compound | Potency
O=C(CN1C(=O)NC(Cc2c[nH]c3ccccc23)C1=O)Nc1cccc(S(=O)(=O)N2CCCC2)c1 (centres undefined) | inactive
CN(Cc1cn(-c2ccccc2)nc1-c1ccc(Cl)cc1)C(=O)CCC(=O)O | inactive
CCOC(=O)c1cc2c(nc1N)CC(C)(CC)OC2 (centres undefined) | active: 13 µM
Clc1cc(Cl)c2nc(N3CCCCC3)sc2c1 | inconclusive: 9.2 µM [activator, partial curve, poor fit]
COCc1cc(=O)n2[nH]c(-c3ccccc3)cc2n1 | inconclusive: 29.1 µM [activator, single point]
Cc1c(C(=O)Nc2ccccc2)sc2nc(-c3ccccc3)cn12 | inconclusive: 3.26 µM [activator, single point]
Cc1ccc2c(CN3CCC(C)CC3)cc(=O)oc2c1C | inconclusive: 23.1 µM [activator, partial curve, poor fit]
COc1ccc(-c2nnc(-c3cccnc3)o2)cc1 | inconclusive: 16.4 µM [activator, single point]
Nc1nonc1-c1noc(CCCOc2ccc(Cl)cc2Cl)n1 | inconclusive: 23.1 µM [activator, partial curve, poor fit]
COc1ccc(-c2cc(C)no2)cc1S(=O)(=O)NCCCN1CCN(c2ccccc2)CC1 | inactive
Cc1cc(NC(=O)c2nn(C)c(C)c2Br)no1 | inconclusive: 16.4 µM [activator, partial curve]
CN(C)C(=O)c1ccc(NC(=O)c2cccc(S(=O)(=O)N3CCCc4ccccc43)c2)cc1 | inconclusive: 25.9 µM [activator, single point]
CC(=O)c1cccc(NC(=O)CCCSc2ccccc2)c1 | inactive
CC1(C)Oc2ccc3ccc(=O)oc3c2-c2cn[nH]c21 | inconclusive: 8.2 µM [activator, partial curve]
N#Cc1ccccc1OCC(=O)N1CCN(S(=O)(=O)c2ccc(Cl)cc2)CC1 | inactive
CCN1CCN(C(=O)CN2C(=O)c3ccccc3S2(=O)=O)CC1 | inconclusive: 18.3 µM [activator, partial curve, poor fit]
Cc1ccc(SCc2cn3cccnc3n2)cc1 | inconclusive: 18.4 µM [activator, partial curve, poor fit]
CC(C)(C)SCCNC(=O)/C=C/c1ccccc1 | inconclusive: 18.3 µM [activator, partial curve, poor fit]
COCC1CCCN(Cc2nc(-c3ccc4c(c3)OCO4)no2)C1 (centres undefined) | inconclusive: 14.6 µM [activator, partial curve, poor fit]
COc1ccc(C(=O)NCC(=O)OCC(=O)N2CCC(C)CC2)cc1OC | inactive

Compound | Potency
CCN(CC)C(=O)c1cc(-c2ccc(Br)cc2)on1 | inconclusive: 11.6 µM [activator, partial curve]
CCN(CCCNC(=O)COc1cc(=O)n(CC)c2ccccc12)Cc1ccccc1 | inconclusive: 20.6 µM [activator, single point]
Clc1ccc2nc(-c3ccc(Cl)nc3)[nH]c2c1 | inconclusive: 11.6 µM [activator, partial curve, poor fit]
CSc1ccc(CNc2ccc(C)c(C)c2)cc1 | inconclusive: 23.1 µM [activator, partial curve, poor fit]
Cc1ccc(NC(=O)c2cc(C)no2)cc1 | inconclusive: 18.3 µM [activator, partial curve, poor fit]
COc1ccccc1OCCNC(=O)c1ccc(C)o1 | inconclusive: 20.6 µM [activator, single point]
O=C(Nc1ccccc1)c1cccc(N2CCCC2=O)c1 | active: 10.3 µM
O=C(NCc1ccccc1)c1ccc(NC(=O)C2CCCO2)cc1 (centres undefined) | inconclusive: 23.1 µM [activator, partial curve, poor fit]
CCCNc1c(F)c(F)c2c(C)c3ccccc3nc2c1F | inconclusive: 18.4 µM [activator, partial curve, poor fit]
O=C(/C=C/Nc1ccc(S(=O)(=O)Nc2ncccn2)cc1)c1ccc2ccccc2c1 | inconclusive: 29.1 µM [activator, partial curve, poor fit]
C=CCSc1nc2c(cnn2-c2ccccc2)c(=O)n1N | inconclusive: 1.64 µM [activator, full curve, poor fit]
CC1=NN(c2ccc([N+](=O)[O-])cc2)C(=O)/C1=C\N(C)C | inconclusive: 20.6 µM [activator, partial curve, poor fit]
Cc1c(C(C)(C)C)sc(=NC(=O)c2ccccc2O)n1C | inconclusive: 2.59 µM [activator, partial curve]
O=C(Nc1cc(-c2ccccc2)[nH]n1)c1ccc(Cl)cc1 | inconclusive: 4.61 µM [activator, partial curve, poor fit] and inconclusive: 8.2 µM [activator, partial curve]
C/C=C/C(=O)OCC(=O)Nc1nc2ccc(C)cc2s1 | inconclusive: 12.6 µM [activator, single point]
O=C(NC1CC1)C1CCN(S(=O)(=O)c2ccc(Cl)c([N+](=O)[O-])c2)CC1 | inactive
O=C(COc1cc(Cl)c(Cl)cc1Cl)NC(=O)Nc1ccc2c(c1)OCCO2 | inconclusive: 16.4 µM [activator, partial curve]
Cc1ccc(C2=NNC(C(O)C(O)C(O)C(C)O)S2)cc1 (centres undefined) | inconclusive: 14.6 µM [activator, partial curve]
N#C/C(=C\c1cccc(O)c1)c1nc2ccccc2o1 | inactive
